Measurements from US9750727B2 (priority 2010, dated 2017).
“And” between values parts separate entries of the source, which are not always exact repeats. Equal values may be shown once. Read-outs that look alike come from different tables or passages of the source.

Tested on: peritoneal macrophages (pMP)
Type: in vivo, mice

Compound	mean macrophagal activity of pMP (monotherapy, infected mice)	mean macrophagal activity of pMP (mouse, in vivo)	increase of pMP phagocytosis (mouse, in vivo)	further results
NCC[C@H](O)C(=O)N[C@@H]1C[C@H](N)[C@@H](O[C@H]2O[C@H](CN)[C@@H](O)[C@H](O)[C@H]2O)[C@H](O)[C@H]1O[C@H]1O[C@H](CO)[C@@H](O)[C@H](N)[C@H]1O [Amycacin, amycacin]	193.42			decrease of pMP activity (TB drug in combination with the new treatment vs TB drug monotherapy): 2.8 fold; mean macrophagal activity of pMP (TB drug in combination with the new treatment, infected mice): 68.29
CC[C@@H](CO)NCCN[C@@H](CC)CO [Ethambutol, ethambutol]		106.35 and 81.95		
NNC(=O)c1ccncc1 [Isoniazid, isonicotinic acid hydrazide]		77.66 and 66.54		
CC1COc2c(N3CCN(C)CC3)c(F)cc3c(=O)c(C(=O)O)cn1c23 (stereo not shown) [Ofloxacin]		95.14 and 111.66	1.2 fold	
CO[C@H]1/C=C/O[C@@]2(C)Oc3c(C)c(O)c4c(c3C2=O)C2=NC3(CCN(CC(C)C)CC3)NC2=C(NC(=O)/C(C)=C\C=C\[C@H](C)[C@H](O)[C@@H](C)[C@@H](O)[C@@H](C)[C@H](OC(C)=O)[C@@H]1C)C4=O [Rifabutin, rifabutin]		66.88 and 83.55	1.3 fold	
NC(=S)NN=Cc1ccncc1.[O-][Cl+3]([O-])([O-])O [new treatment]	132.41			
